In all, about 18,000 sequences were measured (“TetR repression strength (sort-seq, GFP reporter)”: median about 0.23, highest 2% from about 0.68 on). The list shows a part of the results.

Chain of UniProt P04483 (P04483 whole entry): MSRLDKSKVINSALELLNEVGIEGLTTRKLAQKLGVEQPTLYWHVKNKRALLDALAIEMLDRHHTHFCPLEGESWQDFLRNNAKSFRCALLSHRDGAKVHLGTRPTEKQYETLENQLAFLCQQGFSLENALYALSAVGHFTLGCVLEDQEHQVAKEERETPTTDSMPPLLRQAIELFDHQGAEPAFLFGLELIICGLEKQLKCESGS

The experiment deals with TetR (class B, Tn10) (UniProt P04483). Kind of experiment: TetR repression strength (sort-seq, GFP reporter) (relative to tetO2 = 1); higher = stronger repression. The note with it: E. coli. An outline of the steps:
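E. coli SIG10-MAX carried a low-copy plasmid library with eight randomized operator positions between a constitutive promoter and sfGFP, with TetR constitutively expressed. Cells grew 5 h at 37 °C in LB with 50 µg/mL chloramphenicol, then 10^6 cells were FACS-sorted into 13 fluorescence bins, each Illumina-sequenced. Repression strength is the top bin index plus one minus the read-weighted mean bin, divided by the wild-type operator value. Three independent transformations; variants with ≥30 reads in all replicates and CV ≤0.5 were averaged.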
TCCCGCAGAGTCGGGGAGA: the TetR repression strength worked out at 0.2.

Turning to TCCCGGAAAGTAGACGAGA, the TetR repression strength turned out to be 0.0346.

For the sequence TCCCCCGCAGTGGTAGAGA, the TetR repression strength turned out to be 0.267.

In turn, TCCCTGGGAGTACGGGAGA returned a TetR repression strength of 0.255.

Take TCCCCGATAGTGTTAGAGA: the TetR repression strength was 0.244.

Regarding TCCCTATTAGTTGGAGAGA, the TetR repression strength worked out at 0.218.

Sequence TCCCGGATAGTCTTGGAGA yielded a TetR repression strength of 0.191.

For the sequence TCCCTCTGAGTCCGTGAGA, the TetR repression strength came to 0.316.

For TCCCGCGGAGTGCCGGAGA, the TetR repression strength was 0.254.

In the case of TCCCTCCGAGTTCACGAGA, the TetR repression strength amounted to 0.396.

TCCCTGCAAGTGTCAGAGA returned a TetR repression strength of 0.218.

On to TCCCAATCAGTTGAAGAGA, for which the TetR repression strength came out at 0.279.

In turn, TCCCTGAGAGTTGTGGAGA displayed a TetR repression strength of 0.18.

Regarding TCCCCGGCAGTCCGTGAGA, the TetR repression strength came out at 0.0993.

TCCCTAACAGTAGTCGAGA returned a TetR repression strength of 0.492.

Turning to TCCCGTTTAGTGTAAGAGA, the TetR repression strength is 0.191.

In turn, TCCCGTGCAGTGCAAGAGA returned a TetR repression strength of 0.472.

The sequence TCCCGACGAGTGTTGGAGA displayed a TetR repression strength of 0.453.

Regarding TCCCGGCAAGTGGCGGAGA, the TetR repression strength was found to be 0.207.

TCCCTTGAAGTTCACGAGA returned a TetR repression strength of 0.246.

With TCCCACAGAGTGGGAGAGA, the TetR repression strength worked out at 0.133.

As to TCCCGGAAAGTTTAGGAGA, the TetR repression strength turned out to be 0.211.

The sequence TCCCAAAGAGTGCCGGAGA returned a TetR repression strength of 0.168.

For TCCCACCCAGTTAAGGAGA, the TetR repression strength was determined as 0.329.

TCCCTAGCAGTCACTGAGA displayed a TetR repression strength of 0.

With TCCCAGAAAGTCGGAGAGA, the TetR repression strength was 0.254.

Turning to TCCCGTGGAGTCCAGGAGA, the TetR repression strength worked out at 0.259.

As for TCCCTAGTAGTGGGTGAGA, the TetR repression strength was 0.143.

The sequence TCCCAGCGAGTGGTGGAGA showed a TetR repression strength of 0.0858.

For the sequence TCCCGAGTAGTTGCGGAGA, the TetR repression strength stood at 0.169.

TCCCTGTGAGTCAAAGAGA had a TetR repression strength of 0.154.

Sequence TCCCATGGAGTGATGGAGA returned a TetR repression strength of 0.222.

Consider TCCCTGTAAGTCGCGGAGA, for which the TetR repression strength is 0.246.

As to TCCCTGGAAGTGCGAGAGA, the TetR repression strength is 0.119.

TCCCAGTGAGTGTGCGAGA yielded a TetR repression strength of 0.247.

In turn, TCCCGGAGAGTTGCTGAGA gave a TetR repression strength of 0.22.

Consider TCCCGGGGAGTTTTTGAGA, for which the TetR repression strength turned out to be 0.328.

On to TCCCTAAAAGTGATCGAGA, for which the TetR repression strength came to 0.318.

In turn, TCCCTGGTAGTCAGTGAGA came in with a TetR repression strength of 0.0444.

Regarding TCCCGAACAGTCGGTGAGA, the TetR repression strength was 0.354.

For TCCCGTAAAGTGGTGGAGA, the TetR repression strength worked out at 0.228.

Turning to TCCCCTGTAGTCGTAGAGA, the TetR repression strength turned out to be 0.344.

On to TCCCGAAAAGTTGACGAGA, for which the TetR repression strength is 0.0056.

In turn, TCCCTGTTAGTCGTTGAGA registered a TetR repression strength of 0.271.

TCCCTGTAAGTTGTGGAGA showed a TetR repression strength of 0.0341.

In turn, TCCCGGCTAGTGAATGAGA gave a TetR repression strength of 0.357.

TCCCTTGTAGTGAGGGAGA returned a TetR repression strength of 0.19.

TCCCAGAGAGTGAAAGAGA yielded a TetR repression strength of 0.361.

TCCCGACCAGTGGTGGAGA displayed a TetR repression strength of 0.167.

For TCCCTAAGAGTTCATGAGA, the TetR repression strength was found to be 0.203.

TCCCGGCGAGTGCTGGAGA displayed a TetR repression strength of 0.0482.

Sequence TCCCGCTTAGTCGAAGAGA gave a TetR repression strength of 0.389.

TCCCATTGAGTCTATGAGA had a TetR repression strength of 0.259.

Consider TCCCAGCAAGTATTCGAGA, for which the TetR repression strength amounted to 0.322.

As for TCCCGTGAAGTCCCAGAGA, the TetR repression strength worked out at 0.325.

Consider TCCCTAAAAGTAAGGGAGA, for which the TetR repression strength was 0.24.

Sequence TCCCCCAGAGTGGAGGAGA came in with a TetR repression strength of 0.179.

Turning to TCCCCCAGAGTTGGGGAGA, the TetR repression strength came to 0.104.

In turn, TCCCACCAAGTTTGAGAGA gave a TetR repression strength of 0.283.

For TCCCGTTCAGTGCTTGAGA, the TetR repression strength was 0.367.

TCCCGGGTAGTATTGGAGA registered a TetR repression strength of 0.223.

With TCCCGGAGAGTGGCGGAGA, the TetR repression strength was 0.0439.

For TCCCGAGAAGTTAGCGAGA, the TetR repression strength amounted to 0.219.

In turn, TCCCATTTAGTCGAGGAGA yielded a TetR repression strength of 0.136.

Regarding TCCCTGTTAGTGCGGGAGA, the TetR repression strength amounted to 0.226.

On to TCCCTCGAAGTGGGGGAGA, for which the TetR repression strength was determined as 0.0994.

In turn, TCCCGCATAGTCTGCGAGA gave a TetR repression strength of 0.187.

Regarding TCCCTCGGAGTACCCGAGA, the TetR repression strength came out at 0.0592.

On to TCCCTAATAGTAGGCGAGA, for which the TetR repression strength turned out to be 0.509.

For TCCCGCCGAGTGGGGGAGA, the TetR repression strength was found to be 0.13.

On to TCCCGGCTAGTCGAAGAGA, for which the TetR repression strength came out at 0.581.

On to TCCCGGTTAGTTGCAGAGA, for which the TetR repression strength is 0.131.

For TCCCATCGAGTGCTGGAGA, the TetR repression strength worked out at 0.277.

Consider TCCCTCGAAGTGTTGGAGA, for which the TetR repression strength was 0.154.

The sequence TCCCGTAGAGTCAAAGAGA registered a TetR repression strength of 0.207.

In the case of TCCCGAATAGTGCTCGAGA, the TetR repression strength stood at 0.0571.

The sequence TCCCTGCTAGTTAGGGAGA displayed a TetR repression strength of 0.181.

TCCCCCTGAGTAGGCGAGA yielded a TetR repression strength of 0.179.

TCCCTAGGAGTCCCGGAGA: the TetR repression strength is 0.261.

Consider TCCCACCCAGTATCAGAGA, for which the TetR repression strength came out at 0.2.

Regarding TCCCATGGAGTAGAGGAGA, the TetR repression strength came to 0.226.

Consider TCCCCAGTAGTGTAAGAGA, for which the TetR repression strength was 0.139.

TCCCTGACAGTTGGCGAGA yielded a TetR repression strength of 0.301.

TCCCATGCAGTACACGAGA showed a TetR repression strength of 0.222.

Sequence TCCCTCCTAGTCCGCGAGA had a TetR repression strength of 0.574.

On to TCCCGTCCAGTCGGGGAGA, for which the TetR repression strength was 0.38.

In turn, TCCCAGGAAGTCCCGGAGA registered a TetR repression strength of 0.2.

TCCCCTCAAGTGTCGGAGA showed a TetR repression strength of 0.258.

TCCCCGACAGTTGGGGAGA showed a TetR repression strength of 0.201.

Take TCCCGCTCAGTTGCAGAGA: the TetR repression strength is 0.165.

Turning to TCCCAGTTAGTGATTGAGA, the TetR repression strength turned out to be 0.173.

TCCCGATGAGTTGCTGAGA registered a TetR repression strength of 0.124.

The sequence TCCCAGTGAGTGTCAGAGA came in with a TetR repression strength of 0.232.

TCCCGCTAAGTGAAGGAGA displayed a TetR repression strength of 0.207.

Turning to TCCCAACAAGTCAGTGAGA, the TetR repression strength amounted to 0.274.

TCCCGGGGAGTAGCTGAGA had a TetR repression strength of 0.709.

TCCCGCAAAGTGGTGGAGA: the TetR repression strength was determined as 0.0518.

As to TCCCTATTAGTCTACGAGA, the TetR repression strength is 0.327.

The sequence TCCCACCGAGTGTCGGAGA returned a TetR repression strength of 0.13.

Take TCCCGTAAAGTTACAGAGA: the TetR repression strength turned out to be 0.232.

TCCCTGTTAGTATTGGAGA came in with a TetR repression strength of 0.179.

For TCCCAATGAGTGTGAGAGA, the TetR repression strength was determined as 0.213.

(Values after a collection of fitness landscapes (doi:10.1038/s41467-024-54723-y).)
